Measured values: ChEMBL document CHEMBL4888484, “Replenishing the malaria drug discovery pipeline: Screening and hit evaluation of the MMV Hit Generation Library 1 (HGL1) against asexual blood stage Plasmodium falciparum ,using a nano luciferase reporter read-out” (2022)
The campaign covered roughly 150,000 compounds. About 540 (0.36%) showed an effect of 50% or more. This is one part of the list.

System: Plasmodium falciparum
Test: Primary screen in NF54 nanoGlo assay, in single point, at 2uM, 72h; a lower Z score goes with more inhibition
Type: functional, Erythrocyte
Conditions: timepoint 72 hour

SMILES	% Inhibition [%]	Z score
O=C(NCCc1cccc(C(F)(F)F)n1)c1ccnc2nn[nH]c12	-3	0.42
COCC1(C(=O)N2CCn3cccc3[C@H]2c2ccccn2)CCC1	-8	1.2
C[C@H]1CCOCCN1C(=O)c1ncnc2sccc12	-3	0.52
Cc1cc(=O)c(C(=O)N2CCC[C@H](C)C2)c(Cc2cccc(F)c2)n1CCCN1CCOCC1	-5	0.97
CCc1ncc(CNC2(CNC(=O)OC(C)(C)C)CCCC2)cn1	-12	1.59
O=C(CCC(=O)Nc1ccc(OCc2ccccc2)cc1)NCc1ccc2c(c1)OCO2	-1	0.13
CC#CC(=O)N[C@@H](C)CCC1CCCC1	0	-0.05
O=C(N[C@@H](Cc1ccccc1)c1ccccc1F)N1CCN(C(=O)N2CCCC2)CC1	-5	0.74
Cc1cc(CC(=O)NCCc2ccc(C)o2)on1	-6	1.28
Cn1ccnc1CN1CCCC12CCN(c1nc3ccccc3s1)CC2	-12	1.14
COc1ccc([C@@H]2C3=C(O)N(C(C)=O)CC3=Nc3cccc4c3c2cn4C(C)C)c(OC)c1	-3	0.4
O=C(C1CCOC1)N1CCC(F)(c2cccc(C(F)(F)F)c2)C1 (stereo unspecified)	14	-2.69
CC(c1ccc(F)cc1)N(C)CCS(=O)(=O)CCN(C)C(C)c1ccc(F)cc1 (stereo unspecified)	0	0.04
COc1ccc(CNC(=O)c2c(C)oc3nc(C)nc(N4CCOCC4)c23)cc1	-19	2.97
O=C(N[C@H]1COC[C@H]1NC(=O)c1ccsc1)c1ccsc1	5	-0.94
CC1(C)C(C#N)C1(C#N)C(=O)Nc1ccccc1F (stereo unspecified)	-10	1.36
Cc1cc(C)c(C(=O)NCc2cc3n(n2)CCN(S(C)(=O)=O)C3)c(C)c1	-13	1.32
CCC(=O)N1CC(C(=O)NCc2ccc3c(c2)OCO3)C(c2ccc(OC)cc2)C1 (stereo unspecified)	-4	0.6
Cc1cc(C)cc(OS(=O)(=O)CCN2C(=O)NC3(CCCC3)C2=O)c1	1	-0.14
O=C(c1cccc(Cl)c1)N1CC2CCC(O)C2C1 (stereo unspecified)	-5	0.71
O=C1Nc2ccc(Br)cc2C12CCCC2	-3	0.36
Cc1nnnn1Cc1ccc(C(=O)N2CCc3[nH]nc(C4CCC4)c3C2)cc1	-5	0.83

SMILES	% Inhibition [%]	Z score
CC1(C)CN(C(=O)Cc2ccc(C(=O)O)cc2)CC(C)(C)O1	-6	0.73
CC(=O)N1N=C(c2cc(-c3ccc4c5c(cccc35)CC4)n[nH]2)O[C@H]1c1cccc(Cl)c1Cl	-2	0.46
O=c1cc(-c2noc(CNS(=O)(=O)C3CC3)n2)cc[nH]1	-10	1.64
Cc1csc([C@H]2CCCN(S(=O)(=O)c3cnn(C)c3C)C2)n1	26	-2.97
COc1nsc(OC)c1C(=O)NC1(c2cc(Cl)cc(Br)c2)CC1	-1	0.28
COc1ccc(CCNc2ccc3nc(C)nn3n2)c(F)c1	-4	0.43
CC(=O)N1CCc2cc3cccc(C)c3nc21	1	-0.15
Cn1c(C2CCN(C[C@H]3CCOC3)CC2)nc2ccccc21	-14	1.26
Cc1nonc1N1CCN(C(=O)CCc2ccc(F)c(F)c2)CC1	-1	0.16
CCc1onc(C)c1NC(=O)NC1CN(Cc2ccccc2)CC1C (stereo unspecified)	-4	0.55
O=C(NC1CCOC(c2ccccc2)C1)N1CCCCCC1 (stereo unspecified)	-17	3.23
CN(Cc1ccccc1)C(=O)c1cccn2c(=O)c3ccc(Cl)cc3nc12	-9	1.11
Cc1[nH]cnc1CN(C)CCNc1cc([C@H]2CCOC2)ncn1	-12	1.24
CNC(=O)c1ccnc(N2CC[C@H]3[C@H](CCC(=O)N3CCCO)C2)c1	-8	0.98
C=CCN(CC(O)c1ccc(OCc2ccccc2)cc1)C(C)CCc1ccccc1 (stereo unspecified)	-2	0.3
Cc1ncsc1CNC1[C@@H]2CCO[C@@H]2C12CCCC2 (stereo partly specified)	-6	1.14
Cc1c(C(=O)N2CCC(C(=O)N3CCCCCC3)CC2)oc2c(Cl)cccc12	-9	1.36
O=C(Nc1ccc(Cl)c(Br)c1)[C@H]1CCOC1	-7	0.85
COCCNc1nc(-c2cccc(F)c2)c2c(N)n(C)nc2n1	-13	1.38
Cc1cc(C(=O)N2CCc3c(cccc3N3CCOC3=O)C2)c(C)o1	4	-0.47
CC[C@H](C)NCCOc1ccc(C)c(C)c1	-12	1.67
